# The campaign covered roughly 110,000 compounds. About 40 (0.04%) were called active. The shares of active, inactive and inconclusive entries below differ from those in the screen. The call rests on the fitted dose curve; in most records, active means well fitted curve in the direction sought with a large enough effect in the signal ratio (not every such curve was filed as active); inconclusive means small, poorly fitted or top-dose-only effect, or a change in a side signal; inactive means flat fitted curve, though single readings scatter; the % refers to the signal ratio. Potencies of inconclusive entries are doubtful fits and often do not repeat.
# Experiment: IkB Signaling;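 on IkBa stabilization activation: 0% = basal untreated cells and 100% = reference inhibitor full response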
# Details: ABC-DLBCL IkBa-CBG/CBR dual luciferase ratio (green luciferase fused to IkBa over red control in OCI-Ly3 lymphoma cells), 4 h; IkBa stabilization activation: at 57.1 µM (top of the series), scaled: untreated 0%, proteasome inhibitor 100% unless noted
# In short: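 Luminescence ratio of IκBα-fused green versus native red beetle luciferase in OCI-Ly3 cells, 4 h post-doxycycline with compound; red signal alone, scaled from basal (0%) to zero light (-100%), flagged nonspecific or cytotoxic effects.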
# Potency means the concentration at half of the fitted maximal effect.
Structure (SMILES),IkBa stabilization activation,Potency
CN1C(=O)Cc2cc(S(=O)(=O)CCC(=O)Nc3ccc(F)c(Cl)c3)ccc21,inconclusive: 4.46% [signal inhibitor],–
Nc1nc(CSCc2ccccc2)nc(N2CCOCC2)n1,inactive: -0.652%,–
CCc1ccccc1Nc1cc(C(=O)NC(C)c2ccccc2)c2ccccc2n1 (stereo unspecified),inconclusive: -3.63% [signal inhibitor],–
CCCc1nn2c(=O)cc(COC(=O)c3ccccc3NC(=O)c3ccc(Cl)cc3)nc2s1,–,"inconclusive: 15.8 µM [signal inhibitor, partial curve]"
CC(C)c1ccc(CNc2ccc(N3CCOCC3)cc2)cc1,inactive: 5.72%,–
CCOc1ccc(NC(=O)CN2CCCN(Cc3cc(C)ccc3C)S2(=O)=O)cc1,inconclusive: 4.81% [signal inhibitor],–
Cn1c(-c2ccc(F)cc2)cnc1NCc1ccccc1,inconclusive: 4.23% [signal inhibitor],–
CCOC(=O)c1sc2nc(N3CCOCC3)c3c(c2c1N)CCC3,inactive: 1.33%,–
CCOC(=O)c1cccc(NC(=O)CCn2nc(C)c(S(=O)(=O)N3CCCCC3)c2C)c1,inactive: 0.576%,–
C=CCn1c(=O)c2ccccc2n2c(SCc3nc(N)nc(Nc4ccccc4C)n3)nnc12,inactive: 0.494%,–
CCCC(=O)Nc1ccc(-c2nc3ncccc3o2)cc1C,inactive: 5.32%,–
COc1ccc(Cl)cc1-n1nnc(-c2nsc(NC(=O)c3ccccc3Cl)n2)c1C,inconclusive: 1.86% [signal inhibitor],–
COc1ccc(C2(CNC(=O)C(=O)Nc3ccc(F)cc3)CCCC2)cc1OC,inconclusive: 15.9% [signal inhibitor],–
COc1cc2c(cc1OC)-c1c(OC)c(OC)cc3ccnc(c13)C2=O,"inactive: -2.18% [at 11.4 µM, scaled: untreated 0%, proteasome inhibitor 100%]",–
Cc1ccc(NS(=O)(=O)c2ccc3c(c2)CCCN3C(=O)C2CCC2)c(C)c1,inconclusive: 6.02% [signal inhibitor],–
O=C(/C=C/N1CCOCC1)c1ccc(-c2ccccc2)cc1,inconclusive: 8.51% [signal inhibitor],–
COc1ccc2[nH]c3c(c2c1)CN(C)CC3,inconclusive: -0.39% [signal inhibitor],–
CCOC(=O)N1CCc2c(sc(NCc3cc(OC)c(OC)cc3OC)c2C(=O)Nc2ccc(OCC)cc2)C1,inactive: 0.02%,–
CS(=O)(=O)N(Cc1ccco1)CC(O)Cn1c2ccccc2c2ccccc21 (stereo unspecified),inconclusive: 6.28% [signal inhibitor],–
CCc1ccc(-n2c(=O)c3cccnc3n2CC(=O)Nc2cc(F)ccc2F)cc1,inactive: -2.96%,–
Cc1ccc(O)c(-c2cc(C(F)(F)C(F)F)[nH]n2)c1,inactive: 3.64%,–
CCN(CC)C(=O)Cn1cc(SCC(=O)Nc2ccccc2C)c2ccccc21,inconclusive: 0.746% [signal inhibitor],–
Cc1ccccc1-c1nc(-c2cccnc2)no1,inactive: 0.811%,–
Cc1cccc(-c2nc(SCCCOc3ccc(Cl)c(C)c3)n3[nH]c(=O)cc3n2)c1,inactive: -4.24%,–

Structure (SMILES),IkBa stabilization activation,Potency
CCOc1ccc(NC(=O)c2ccccc2O)cc1,inconclusive: 17.8% [signal inhibitor],–
CCc1c(C)nc2ncnn2c1N1CCC(C(=O)N2CCN(c3ccc(F)cc3)CC2)CC1,inconclusive: 3.68% [signal inhibitor],–
Cc1ccc(C)n1-c1nnc(N2CCCC(C(=O)NCc3cccc(Cl)c3)C2)s1 (stereo unspecified),inconclusive: 2.59% [signal inhibitor],–
Cc1ccc(/C=C/c2onc(C)c2S(=O)(=O)N2CCC(C(=O)NCC(C)c3ccccc3)CC2)cc1 (stereo unspecified),inconclusive: -2.2% [signal inhibitor],–
O=C(Nc1ccc2c(c1)OCCO2)C1CCCN(S(=O)(=O)c2cccs2)C1 (stereo unspecified),inconclusive: 1.05% [signal inhibitor],–
Cc1ccc(Cl)cc1N1CCN(S(=O)(=O)c2ccc3c(c2)CCCN3C(=O)C2CCC2)CC1,inconclusive: -0.0329% [signal inhibitor],–
Cc1nn(CC(=O)Nc2ccc3c(c2)oc2ccccc23)c(=O)c2ccccc12,inactive: 1.35%,–
CCOC(=O)C1CCN(c2nc3cc(OC)ccc3cc2C#N)CC1,inactive: 11.2%,–
COc1cc(OC)c(NC(=O)Cn2c(=O)oc3cc(S(=O)(=O)N4CCCC4)ccc32)cc1Cl,inconclusive: -1.79% [signal inhibitor],–
CCN1CCN(C(=O)c2cc3c(=O)n4ccccc4nc3n2Cc2ccccc2)CC1,inactive: 0.582%,–
COc1ccc(CCNS(=O)(=O)c2ccc(C(=O)NCc3ccco3)cc2)cc1OC,inconclusive: 4.27% [signal activator],–
Cc1cc(Cl)ccc1NC(=O)CN(c1ccccc1Br)S(C)(=O)=O,inconclusive: 3.97% [signal inhibitor],–
COc1ccc(CN2CCN(c3ncnc4sc5c(c34)CC(C)CC5)CC2)cc1F (stereo unspecified),inconclusive: 8.43% [signal inhibitor],–
COc1ccccc1N1CCN(CCCNC(=O)c2cnn(-c3ccccc3)c2C2CCN(C(=O)OC(C)(C)C)CC2)CC1,inconclusive: -0.138% [signal inhibitor],–
COCCCNc1oc(-c2ccc(COc3ccc(Cl)cc3)o2)nc1C#N,inconclusive: -1.47% [signal inhibitor],–
CCCCCNC(=O)CCCCCn1c(=O)[nH]c2ccsc2c1=O,inconclusive: -1.74% [signal inhibitor],–
COc1ccc(CNC(=O)C2CCN(c3nc4ccccc4[nH]3)CC2)cc1OC,inactive: -0.164%,–
CCOc1ccc(C2CC(=O)Nc3c2c(=O)nc(SCc2ccccc2C)n3C)cc1OC (stereo unspecified),inconclusive: 6.18% [signal inhibitor],–
COC(=O)c1ccccc1NC(=O)Cn1c(-c2nonc2N)nc2ccccc21,inconclusive: -1.71% [signal activator],–
O=C(NCc1ccccn1)c1cc2ccccc2oc1=O,inconclusive: 2.91% [signal inhibitor],–
Cc1ccc2c(=O)cc(C(=O)Nc3cccc(C(F)(F)F)c3)oc2c1C,inactive: -1.37%,–
Cc1cccn2c(=O)c3cc(C(=O)NC(C)c4ccccc4)c(=N)n(CCCO)c3nc12 (stereo unspecified),inconclusive: 1.98% [signal inhibitor],–
COc1c(O)ccc2c1CN1CCc3cc4c(cc3[C@@H]1C2)OCO4,"inactive: 0.751% [at 11.4 µM, scaled: untreated 0%, proteasome inhibitor 100%]",–
COC(=O)c1ccc(OCC2c3cc(OC)c(OC)cc3CCN2C(=O)c2ccc(F)cc2)cc1 (stereo unspecified),inconclusive: -0.689% [signal inhibitor],–

Structure (SMILES),IkBa stabilization activation,Potency
O=C(Cn1nnc(-c2ccccc2Cl)n1)Nc1ccc(Br)cc1,inconclusive: 6.06% [signal inhibitor],–
Cc1c2ccccc2c(CSC(=N)N)c2ccccc12,"inconclusive: 0.391% [signal inhibitor] [at 11.4 µM, scaled: untreated 0%, proteasome inhibitor 100%]",–
COc1ccc(C(=O)NCC(c2ccc(N(C)C)cc2)N2CCc3ccccc32)c(OC)c1 (stereo unspecified),inconclusive: 5.06% [signal inhibitor],–
COc1ccc(-c2nc3c(C#N)c[nH]n3c2NC2CCCC2)c(OC)c1,inactive: 1.83%,–
Cc1ccc(NC(=O)CCc2c(C)nc3cc(-c4ccccc4)nn3c2C)cc1F,–,"inconclusive: 20 µM [signal inhibitor, partial curve]"
O=S1(=O)CCN2C(=N1)Sc1c2ccc2c1CCCC2,inactive: -5.41%,–
CCN1C(=O)c2ccccc2Sc2ccc(NC(=O)c3ccc(Cl)cc3)cc21,inconclusive: 0.53% [signal inhibitor],–
CCCc1cc(C(=O)Nc2ccc(C)cc2)no1,inactive: 9.33%,–
CCOC(=O)Nc1ccc2c(c1)N(C(=O)N1CCN(C)CC1)c1ccccc1S2,–,"inconclusive: 7.94 µM [signal inhibitor, full curve]"
CCc1nn(Cc2ccc(Cl)cc2)c(=O)c2cc3cc(C)ccc3n12,inactive: 0.369%,–
O=C(Cc1ccccc1)Nc1nc(-c2cccs2)cs1,inconclusive: 9.29% [signal inhibitor],–
COc1ccc(C(=O)NCCn2cc(SCC(=O)Nc3nnc(C)s3)c3ccccc32)cc1,inconclusive: 1.32% [signal inhibitor],–
CC(C)OC(=O)CSc1nnc(-c2ccc(O)cc2)n1Cc1ccccc1,inconclusive: 1.74% [signal inhibitor],–
CCOc1ccc(CN2CCc3nc(Nc4ccc(OC)cc4OC)ncc3C2)cc1,inconclusive: 1.01% [signal inhibitor],–
O=C(NCCCN1CCN(c2ccc(F)cc2)CC1)c1ccc2nc(Cc3ccccc3)oc2c1,inactive: 3.59%,–
COc1ccc2c(c1)c1c(c(=O)n(CCc3ccccc3)c(=O)n1Cc1ccc(F)cc1)n2C,inactive: -0.27%,–
CCN(CC)CCCNC(=O)c1nn(C)c2c1CS(=O)(=O)c1ccccc1-2,inconclusive: 0.383% [signal inhibitor],–
Cc1ccc2sc(NC(=O)c3ccc4c(c3)OCCO4)nc2c1C,inconclusive: 6.41% [signal inhibitor],–
COc1ccc2c(c1)c1c(c(=O)n(-c3ccc(F)c(Cl)c3)c(=O)n1Cc1ccccc1C)n2C,inactive: -1.42%,–
CCSC1=NC2(CCN(C(=O)NC3CCCCC3)CC2)N=C1c1ccc(Cl)cc1,inconclusive: 0.199% [signal inhibitor],–
CC(C)(C)NC(=O)C(c1ccco1)N(C(=O)c1csnn1)c1ccccc1 (stereo unspecified),inactive: 0.836%,–
COc1cccc(Cn2c(=O)c(-c3cccc(C#N)c3)nc3cnc(N4CCOCC4)nc32)c1,"inactive: 0.787% [at 11.4 µM, scaled: untreated 0%, proteasome inhibitor 100%]",–
CCOC(=O)c1c(C)[nH]c(CCC(=O)NCc2ccc(N(C)C)cc2)c1C,inactive: -2.8%,–

# Reference: PubChem BioAssay AID445 (National Center for Advancing Translational Sciences (NCATS), 2006)
